In all, about 13,000 compounds were measured (“IFI”: median about 4, highest 2% from about 17 on). This is one part of the list.
Assay: GSK_TCMDC: Inhibition Frequency Index (IFI). The number of non-kinase HTS assays where a compound showed > 50 % inhibition, expressed as a percentage of the number of such assays in which the compound was tested (-0 is zero)
Assay type: functional

| SMILES | IFI [%] |
| --- | --- |
| COc1ccc(Cl)cc1S(=O)(=O)Nc1cccc(CCN2CCC(N3CCCCC3)CC2)c1 | 7.81 |
| Cc1cccc(OCC(=O)Nc2cccc(NC(=O)COc3cccc(C)c3)n2)c1 | 0.76 |
| Cc1cc(C)cc(OCC(O)CN(Cc2cc(Cl)cc(Cl)c2)C(=O)Nc2ccc(Cl)cc2)c1 (stereo not drawn) | 4.17 |
| Cc1cccc2nc(C3CCN(CC4CCN(C(=O)/C=C/c5ccc(Cl)c(Cl)c5)CC4)CC3)[nH]c12 | 2.9 |
| CC(C)C(C(=O)Nc1ccc(S(=O)(=O)N(C)C)cc1)c1ccc(Cl)cc1 (stereo not drawn) | 16.2 |
| Cc1sc(CNCCCNc2cc(=O)c3ccccc3[nH]2)c(I)c1C | 4.29 |
| O=C(Nc1cccc(CN2CCCN(Cc3ncc[nH]3)CC2)c1)c1cc2ccccc2s1 | 3.05 |
| CC(=O)Nc1ccc(Nc2cc(C)nc(Nc3ccc(NC(C)=O)cc3)n2)cc1 | 2.88 |
| CCN1CCCC(Nc2ccnc3cc4ccccc4cc23)C1 (stereo not drawn) | 4.41 |
| Cc1nc2ccc(S(=O)(=O)Nc3ccc(C(=O)N[C@@H](CCC(=O)O)C(=O)O)cc3)cc2c(=O)[nH]1 | 0.76 |
| COc1ccc2c(c1)S(=O)(=O)N=C(N1CCCC1c1ccc(Cl)c(Cl)c1)N2C (stereo not drawn) | 1.59 |
| CC(CN(C)C)C(=O)Nc1cccc(-c2ccc(-c3nc4ccccc4[nH]3)cc2)c1 (stereo not drawn) | 5.45 |
| Cc1nc2ccc3ccc(CNc4ccc(C#N)cc4)cc3c2c(=O)[nH]1 | 2.13 |
| CCOC(=O)NC1=NC(C)(C)N(OCc2cccc3c2ccc2ccccc23)C(NC(=O)OCC)=N1 | -0 |
| Cc1cccc(NC(=O)Nc2cccc(-c3ccc(-c4nc5cc(C(F)(F)F)ccc5[nH]4)cc3)c2)c1 | 6.45 |
| COc1cc(C)nc2ccc(NC(=O)Nc3ccc4nc(C)cc(OC)c4c3)cc12 | 2.19 |
| CC1(C)NC(N)=NC(=N)N1OCCCCCOc1ccccc1 | 3.5 |
| O=C(Nc1nc2cc(S(=O)(=O)NCCc3ccc(F)cc3)ccc2n1CCCn1ccnc1)c1ccc(Cl)cc1 | 2.03 |
| O=S(=O)(c1ccc(OC(F)(F)F)cc1)C1CC2CCC(C1)N2S(=O)(=O)c1ccc(Cl)c(C(F)(F)F)c1 (stereo not drawn) | 1.72 |
| CCOc1ccc(C(=O)Nc2cc3c(c(C(F)(F)F)c2)CCNC3)cc1Cl | 3.91 |
| COc1ccc(-c2cccc(NC(=O)c3cccc(C#N)c3)c2)cc1CN1CCC(O)CC1 | -0 |
| COc1ccc(C2CC(c3cccs3)=NN2C(=O)c2ccccc2)cc1OC (stereo not drawn) | 1.39 |

| SMILES | IFI [%] |
| --- | --- |
| O=C(C=Cc1ccccc1)Nc1ccc(C#CC=Cc2ccc(NC(=O)C=Cc3ccccc3)cc2)cc1 | 1.45 |
| Fc1cccc(Cn2ncc3cc(Nc4ncnc5sc(C#Cc6ncc[nH]6)cc45)ccc32)c1 | 1.74 |
| Nc1nc(N)c2c3c(cnc2n1)CCCC3 | 2.13 |
| CCOc1ccc(-c2n[nH]c(C(F)(F)F)c2-c2ccccc2OC)c(O)c1 | 7.04 |
| CS(=O)(=O)CCNCc1cccc(-c2cc3c(Nc4ccc(OCc5ccccc5)cc4)ncnc3cn2)c1 | 1.42 |
| Cc1ccc(-c2nc(N3CCN(C(=O)c4ccco4)CC3)c3ccc(Cl)cc3n2)cc1 | 0 |
| CCOc1cc(/C=N/Nc2nc3ccccc3[nH]2)ccc1OCc1ccc([N+](=O)[O-])cc1 | 0.75 |
| COc1ccc(NC(=O)/C=C/c2ccccc2Cl)cc1OCCN1CCC(c2nc3ccccc3[nH]2)CC1 | 2.86 |
| Oc1ccc(CCNc2nc(NCCOc3ccccc3-c3ccccc3)nc(N3CCNCC3)n2)cc1 | 20 |
| CN(C)Cc1ccc(-c2ccc(NC(=O)c3ccc4c(=O)n(Cc5ccoc5)cnc4c3)cc2)cc1 | 4.72 |
| O=C(Nc1cccc(Cl)c1Cl)NC1CCN(Cc2cccc(O)c2)CC1 | 2.33 |
| COc1cc2nc(N3CCC(CNCc4ccc(-c5ccc(C(F)(F)F)cc5)cc4)CC3)nc(N)c2cc1OC | 17.1 |
| COc1ccc2nc(C)cc(N/N=C/c3ccccc3[N+](=O)[O-])c2c1 | 2.94 |
| Nc1nc(N)c2c(ccc3[nH]c(-c4ccccc4Cl)nc32)n1 | 12.1 |
| O=C(Nc1ccc2c(c1)CCC2)N[C@H]1CCN(Cc2ccc(OCCCN3CCCCC3)cc2)C1 | 5.63 |
| COc1ccc2ccccc2c1CCCCN1CCN(CC(c2ccc(F)cc2)N2CCN(C(C)C)CC2)CC1 (stereo not drawn) | 14.7 |
| Cc1noc(C)c1-c1cccc(C(=O)NC2CCN(CCNC(=O)C(c3ccccc3)c3ccccc3)CC2)c1 | 3.5 |
| CC(C)C[C@H](NC(=O)[C@H](Cc1ccccc1)N(C[C@H](Cc1ccccc1)NC(=O)OC(C)(C)C)C(=O)C(F)(F)F)C(=O)NC1CCN(Cc2ccccc2)CC1 | 5.19 |
| CCN(CC)CCN(Cc1ccc(-c2ccc(C(F)(F)F)cc2)cc1)C(=O)Cn1c(CCc2ccc(F)c(F)c2)nc(=O)c2ccccc21 | 9.77 |
| CCN(CC)CCn1c(=N)n(CC(O)c2ccc(Cl)c(Cl)c2)c2ccccc21 (stereo not drawn) | 6.52 |
| CC(C)CCNc1nc2ccccc2nc1Nc1cccc(C(F)(F)F)c1 | 9.4 |
| Cc1cccc(C)c1CNc1ccnc2ccccc12 | -0 |

| SMILES | IFI [%] |
| --- | --- |
| c1ccc(-c2ccc3c(Nc4ccc5[nH]ncc5c4)ccnc3c2)nc1 | 5.59 |
| Cc1ccc(-n2nc3ccc(NC(=O)c4ccc([N+](=O)[O-])o4)cc3n2)cc1C | 0.77 |
| CCN1CCC(N(Cc2ccc(-c3ccc(C(F)(F)F)cc3)cc2)C(=O)Cn2nc(C)c(=O)cc2SCc2ccc(F)cc2)CC1 | 19.6 |
| COc1cccc(NC(=O)[C@H](C(C)C)n2c(=O)[nH]c3ccccc3c2=O)c1 | 0 |
| CCc1cc([C@H]2O[C@@H](n3cnc4c(NCC(c5ccccc5)c5ccccc5)nc(NCCNc5ccccn5)nc43)[C@H](O)[C@@H]2O)on1 | 4.38 |
| CCS(=O)(=O)Nc1ccc2c(c1)/C(=C(/Nc1ccc(CN3CCCCC3)cc1)c1ccccc1)C(=O)N2 | 8.28 |
| Cc1cc(Nc2cc(Cl)cc(Cl)c2)nc(N)n1 | 1.35 |
| COc1ccccc1-c1cccc(Nc2c(Nc3ccc(Cl)cc3)c(=O)c2=O)c1 | 7.21 |
| CCOC(=O)C(C)(C)Oc1ccc(CN(Cc2ccc(CC(C)C)cc2)C(=O)Nc2ccc(F)cc2F)c(OC)c1 | 1.45 |
| CN1CCN(CCCNCc2ccc(Nc3nccc(Nc4ccc(Oc5ccccc5)cc4)n3)cc2)CC1 | 4.41 |
| CCN1CCC(N(CCCCCCc2ccc(C(F)(F)F)cc2)C(=O)Cn2c(CCc3cccc(F)c3F)cc(=O)c3ccccc32)CC1 | 5.19 |
| CC(C)(C)C(=O)Nc1ccc(N2CCN(C(c3ccccc3)c3ccccc3)CC2)c(Cl)c1 | 3.51 |
| CCN(CC)CCNc1c2ccc(Cl)cc2nc2ccc(OC)nc12 | 0.75 |
| CN(Cc1cccc(F)c1)C1CCN(c2cc(NC(=O)c3ccc(F)cc3)ccn2)C1 (stereo not drawn) | 2.86 |
| CON=Cc1ccn(-c2ccc(O)c3c2C[C@H]2C[C@H]4[C@H](N(C)C)C(O)=C(C(N)=O)C(=O)[C@@]4(O)C(O)=C2C3=O)c1 | 6.48 |
| Cn1cnc2c(Nc3ccncc3)nc(-c3ccc4ccccc4c3)nc21 | 4.79 |
| CCCCOc1cc2ncc(C(=O)OCC)c(O)c2cc1OCCCC | 0 |
| Nc1nccc2ccc(-c3cccc4ncccc34)cc12 | 10 |
| CCCCCN1CCCC(CNS(=O)(=O)c2ccc(C(=O)Nc3ccc(C(F)(F)F)cc3)cc2)C1 (stereo not drawn) | 10.6 |
| O=C(c1ccc([N+](=O)[O-])o1)N1CCN(c2nc3c(F)cc(F)cc3s2)CC1 | 2.13 |
| CCCCCCN1CCC(CNCc2cccc([N+](=O)[O-])c2)CC1 | 2.16 |
| CCC[C@@H](/C=N/N(C)C(=O)OC(C)(C)C)NC(=O)[C@H](CC(C)C)NC(=O)c1cc2cccc(OC)c2o1 | 8.18 |

| SMILES | IFI [%] |
| --- | --- |
| N=C(/N=C(/NCCCCCCN/C(=N\C(=N)Nc1ccc(Cl)cc1)N1CCOCC1)N1CCOCC1)Nc1ccc(Cl)cc1 | 6.72 |
| Nc1c2ccccc2nc2ccc(Cl)cc12 | 9.03 |
| NC1CCCN(Cc2ccc(-c3ccc(-c4nc5ccccc5[nH]4)s3)cc2)C1 (stereo not drawn) | 5.63 |
| Cc1cccc(C(=O)NC(NC(=S)Nc2ccc([N+](=O)[O-])cc2)C(Cl)(Cl)Cl)c1 (stereo not drawn) | 10.3 |
| CC(C)(C)c1ccc(CN(C[C@@H](O)CNS(=O)(=O)c2cc(Cl)cc(Cl)c2)C(C)(C)C)cc1 | 13.9 |
| CCN(CC)CCCn1c(N)c(-c2nc3ccccc3[nH]2)c2nc(C#N)c(C#N)nc21 | 5.52 |
| COc1ccc2nc(Nc3nc(-c4ccccn4)cs3)sc2c1 | 8.06 |
| COc1ccc(CC(Cc2ccc(OC)cc2)NCC(O)c2cccc(Cl)c2)cc1 (stereo not drawn) | 4.86 |
| O=[N+]([O-])c1cccc(CNC2CCN(Cc3ccc(-c4ccccc4)cc3)CC2)c1 | 4.29 |
| COc1ccc(CON2C(=N)N=C(N)NC2(C)C)cc1OC | 1.47 |
| CC(=O)c1c(CC(=O)O)c2ccccc2n1O | 4.83 |
| COc1cc2cc(C(=O)Nc3ccccc3)c(N)nc2cc1OC | 1.28 |
| CC(C)c1ccc(O)cc1Nc1ccnc2ccc(C(F)(F)F)cc12 | 2.31 |
| N#Cc1ccc(N(CCOC(=O)c2ccccc2)Cc2ccccc2C(F)(F)F)cc1C(F)(F)F | 0.69 |
| c1ccc2c(c1)CN(CC1CC1)CC1(CCN(Cc3c[nH]c4cnccc34)CC1)O2 | -0 |
| C(=C(c1cccs1)c1cccs1)c1ccc(CNC2CCN(Cc3ccccc3)CC2)cc1 | 14.4 |
| CCNc1cc(C(=O)N[C@@H](Cc2ccccc2)[C@H](O)CNC23CCC(CC2)CC3)cc(N2CCCCS2(=O)=O)c1 | 2.22 |
| N#Cc1ccc2c(c1)CN(C1CCC(NC(=O)/C=C/c3cc(C(F)(F)F)cc(C(F)(F)F)c3)CC1)CCC2 (stereo not drawn) | 1.64 |
| O=C(NCc1cccc(F)c1)c1ccc(O)c(-c2cc(Cl)cc(Cl)c2)c1 | 2.19 |
| c1cc(C2=NC3CCCCC3N2)ccc1OCCCCCOc1ccc(C2=NC3CCCCC3N2)cc1 (stereo not drawn) | 6.16 |
| O=C(Nc1ccccc1)N(Cc1cccc(-c2ccc(CNCc3ccc4c(c3)OCO4)cc2)c1)C1CCN(Cc2ccccc2)CC1 | 9.49 |
| O=C(c1ccc([N+](=O)[O-])o1)N1CCN(c2ccccc2)CC1 | 2.11 |
